# In PubChem BioAssay (NCATS):
# Results filed as inconclusive are left out. Calls come from the whole dose curve; as a rule, active = well fitted inhibition curve with a large enough effect; inconclusive = small, poorly fitted or top-dose-only effect; inactive = no such curve, though single readings can be large or run the other way. The source holds several records for some structures; these can differ, active in one and inactive in another. Some entries of the source have several records that differ or are many. This list holds those alone. An entry can have further records. Values given together are repeats in other runs, samples, wells, individuals or studies. What stands in brackets tells the records apart. The letters are not those of the source and start again with each entry.
# Tested on: Zika virus NS2B-NS3 protease (linked)
# Assay: 384 well plate NINDS AMC confirmatory qHTS for Zika virus inhibitors (AID 1347163); note: nearly all actives have a fitted effect of over 50% in size
# Outline: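 Enzyme (5, 30 or 60 nM final) first met test compounds for ~15 min. The AMC-tagged peptide Ac-VKTGKR-AMC followed at 30 microM. Fluorescence was then recorded at 25 min and scaled against no-enzyme and no-inhibitor wells.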
# Potency is the fitted concentration of half-maximal effect.
smiles,measurement,value
CON(C)Cc1ccc(O)c2c1C[C@H]1C[C@H]3[C@H](N(C)C)C(=O)C(C(N)=O)=C(O)[C@@]3(O)C(=O)C1=C2O,Potency,active: 251 µM [sample A] and inactive [sample B]
